# According to ChEMBL document CHEMBL1201862, “PubChem BioAssay data set” (2004):
#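 Cells were grown in 96-well plates and exposed to each compound for 48 hours at five concentrations; endpoints were interpolated linearly between bracketing concentrations, or set to the highest concentration if not reached. At the GI50, growth is halved.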 Activity calls are given as the source filed them. Cut-off read from the data, not from the text of the source: active = GI50 up to about 1.1 µM and inactive = higher.
# Tested on: NCI-H322M
# Assay: NCI tumour cell line growth inhibition, 48 h
row,Compound,GI50
1,CN(C)CCNCCN,inactive: > 100 µM
2,COc1ccc(NC(S)=Nc2cccc(C)n2)cc1,inactive: > 100 µM
3,Nc1nc(N)nc(CCCc2nc(N)nc(N)n2)n1,inactive: > 100 µM
4,CCN(CC)c1ccc2cc(-c3nnc(-c4ccccc4)o3)c(=O)oc2c1,inactive: 53.8 µM
5,O=C(O)c1ccc2c(c1C(=O)O)C(=O)OC2(c1ccc(O)cc1)c1ccc(O)cc1,inactive: > 100 µM
6,NC(=O)c1ccc[n+](C2=C([N-]S(=O)(=O)c3ccccc3)C(=O)c3ccccc3C2=O)c1,inactive: 15.9 µM
7,Cc1ccc(/N=C2\C(=N/c3ccc(C)cc3)N(c3ccc(C)cc3)C(=S)N2C(=O)c2ccccc2)cc1,inactive: > 100 µM
8,C/N=C/N(C)c1c2ccccc2nc2ccccc12,inactive: > 100 µM
9,Sc1nnc(NNc2ccccc2)n1Nc1ccccc1,inactive: > 86.1 µM
10,CCOC(=O)N/N=C/C1=NN(C(=O)OCC)[S+]([O-])C1C (configuration not stated),inactive: > 100 µM
11,N=c1oc2ccc(Cl)cc2cc1C(N)=O,inactive: 26.2 µM
12,COC(=O)C1CC2CC(=NNC(N)=O)CC2C1 (configuration not stated),inactive: > 100 µM
13,O=[N+]([O-])c1cc(-c2nc(-c3ccccc3)c(-c3ccccc3)[nH]2)c(O)c([N+](=O)[O-])c1,inactive: 20.6 µM
14,CC1CCP(=O)(c2ccccc2)c2ccccc21 (configuration not stated),inactive: > 100 µM
15,C1COCCOP2(N3CC3)=NP(N3CC3)(=NP(N3CC3)(N3CC3)=N2)OCCOCCO1 (configuration not stated),inactive: > 100 µM
16,Cc1cc2oc(=O)c(Cl)c(Cl)c2c(C)c1Cl,inactive: 17.1 µM
17,COC(=O)C1C(O)C(C)C(O)C(C)(O)C=C(C)C2=C3C(=C(C)C(=O)c4c(O)c(c(C)c(OC(C)=O)c43)NC(=O)C(C)=C/C=C\C(C)(O)C(O)C(C)C1O)OCO2 (configuration not stated),inactive: > 100 µM
18,CC1(C)CC(=O)c2c(nc(SSc3nc4c(c(-c5ccc(Br)cc5)c3C#N)C(=O)CC(C)(C)C4)c(C#N)c2-c2ccc(Br)cc2)C1,inactive: > 10 µM
19,C=C(C)C1CC2(C)C(C)CC(O)CC2C(OC(=O)C=C(C)C)C1O (configuration not stated),inactive: > 100 µM

row,Compound,GI50
1,C#CCNC(=O)N(CC#C)N=O,inactive: > 100 µM
2,CC(=O)OCC1OC(SC2=N/C(=C\c3cc4c(=O)c5ccccc5sc4s3)C(=O)N2c2ccccc2)C(OC(C)=O)C(OC(C)=O)C1OC(C)=O (configuration not stated),inactive: > 100 µM
3,Cc1c2cnccc2nc2[nH]c3ccncc3c12,inactive: 5.3 µM
4,c1ccc2c(c1)oc1ccc3nsnc3c12,inactive: > 100 µM
5,CCOC(=O)NC/C=C/CO,inactive: > 100 µM
6,Cc1ccc(-n2cc(-c3ccc(Cl)cc3)c3c(=N)n(N)cnc32)cc1,inactive: 14.4 µM
7,CCOC(=O)C(=CNc1ccc(F)c(F)c1)C(=O)OCC,inactive: > 100 µM
8,N#Cc1c(-c2ccc(Cl)cc2)c(C#N)c(=O)n(NS(=O)(=O)c2ccccc2)c1O,inactive: 34.8 µM
9,O=C1C=C(c2ccccc2)O/C1=C\C(=O)c1ccc(Cl)cc1,inactive: > 100 µM
10,CCN(CC)CC(=O)/C=C/c1ccc(C)cc1,inactive: 33.2 µM
11,COc1ccc(-c2c(C#N)c(O)n(C3OC(COC(C)=O)C(OC(C)=O)C(OC(C)=O)C3OC(C)=O)c(=S)c2C#N)cc1 (configuration not stated),inactive: 48 µM
12,Cc1ccc(O)c(C2=NNC(c3cccc(Br)c3)C2)c1 (configuration not stated),inactive: > 100 µM
13,CCCCCCC(=O)C/C(=N/NC(N)=S)C(=O)NC1C2CC3CC(C2)CC1C3 (configuration not stated),inactive: > 100 µM
14,O=C1c2ccccc2C(=O)N1C/C=N/NS(=O)(=O)c1cccc([N+](=O)[O-])c1,inactive: > 100 µM
15,O=C1CCC(C(=O)O)C2=C1CCCC2 (configuration not stated),inactive: 20.3 µM
16,CCN(CC)CCNC(=O)c1ccccc1Nc1c(Cl)cccc1Cl,inactive: 13.4 µM
17,CC(C)OP(=S)(NC(=S)c1ccccc1)OC(C)C,inactive: > 100 µM
18,Nc1nc(Cl)cc(Nc2cc(Cl)cc(Cl)c2)n1,inactive: 18.4 µM
